# Measurements from the supplement of paper PMC12217912.
# The list shows a part of the results. The full chains were built here from the parent and the listed change. Inactive controls read about 0.05.
# B1: TEV protease; numbered along this chain (parent)
# chain: MGESLFKGPRDYNPISSSICHLTNESDGHTTSLYGIGFGPFIITNKHLFRRNNGTLVVQSLHGVFKVKDTTTLQQHLVDGRDMIIIRMPKDFPPFPQKLKFREPQREERICLVTTNFQTKSMSSMVSDTSCTFPSGDGIFWKHWIQTKDGQCGSPLVSTRDGFIVGIHSASNFTNTNNYFTSVPKNFMELLTNQEAQQWVSGWRLNADSVLWGGHKVFMVKPEEPFQPVKEATQL
# Variants of: B1
# Experiment: raw area under fraction-flipped curve 0-4 h after induction (AUC4h, not background-subtracted), DNA-recorder readout of cleavage of the substrate (dimensionless); higher = more cleavage of the substrate by the protease variant
# Settings: temperature: 34 °C; time window: 0-4 h after rhamnose induction
# Experimental: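 In vivo DNA recorder in E. coli TOP10(DE3) ΔrhaA at 34 °C. Each TEVp single-site mutant (parent TEVp 0) is paired with a single-site variant of the 7-mer TEVs (canonical ENLYFQ|S). The substrate sits between flexible linkers in a Bxb1-sfGFP-TEVs-SsrA fusion, so cleavage stabilises Bxb1 and speeds flipping of a recombination array, read by NGS. The value is the raw area under the fraction-flipped curve over 0-4 h after rhamnose induction (AUC4h), with ≥20 reads per time point. It is not background-subtracted; inactive controls average about 0.047.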
# 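Also: Bxb1 expression induced with 0.2% (w/v) L-rhamnose at OD600 near 0.5, cultures sampled hourly, flipped fraction per protease–substrate barcode pair counted by paired-end Illumina sequencing.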
Variant,area with substrate ENLYFQA,area with substrate ENLYFQC,area with substrate ENLYFQF,area with substrate ENLYFQI,area with substrate ENLYFQK,area with substrate ENLYFQM,area with substrate ENLYFQN,area with substrate ENLYFQQ,area with substrate ENLYFQR,area with substrate ENLYFQS,area with substrate ENLYFQT,area with substrate ENLYFQV,area with substrate ENLYFQW,area with substrate ENLYFQY,area with substrate ENLYFQE,area with substrate ENLYFQG,area with substrate ENLYFQH,area with substrate ENLYFQL,area with substrate ENLYFQD,area with substrate ENLYFQP
L33R,0.057,0.0528,0.0497,0.0663,0.0552,0.0591,0.0629,0.0501,0.0669,0.0608,0.0671,0.0728,0.057,0.05,,,,,,
I42V,0.127,,,0.0757,0.0666,0.0748,0.081,,0.0735,0.104,0.0709,0.0406,0.062,,0.0757,0.112,0.0754,0.0557,,
G54W,0.0625,,,,,,0.0562,,0.0619,0.0691,,0.045,0.0627,0.113,0.0536,,0.0587,,0.0525,0.0526
G54A,0.074,0.0724,0.0581,0.0557,0.0493,0.0749,0.0706,0.0589,0.0747,0.0714,0.0564,0.0635,0.0543,0.0772,,,0.0616,0.0698,0.0227,
G54M,0.0616,0.0606,0.0651,0.0478,0.0539,0.0692,,,0.0478,0.0719,0.0545,0.038,0.0624,0.077,,0.0657,0.0776,0.0599,,0.0483
G54C,0.0933,0.0806,0.0466,,0.0635,0.0661,0.0274,,,0.0718,0.0803,0.0557,0.0657,0.0563,0.066,0.0984,,0.0663,0.0544,0.0642
G39F,0.0432,0.0403,0.0285,0.0473,0.0401,0.0318,0.0367,0.0391,0.0394,0.0447,0.0476,0.0338,0.0306,0.0397,,0.0391,0.0421,0.0537,0.0433,0.0426
G39Y,0.0392,0.0417,0.0499,0.045,0.036,0.0495,0.0452,,0.0411,0.0465,0.0424,,,,,0.0525,0.0357,,0.0475,0.0477
G39L,0.0293,0.0364,0.0437,0.0094,0.0364,0.0358,0.0234,,0.0434,0.043,0.0642,0.0144,0.0496,,,0.0385,,0.0314,,0.0354
F41A,0.078,0.099,,0.0604,0.0636,0.0925,,,0.0676,0.0828,0.0604,,,0.0576,,0.0918,0.0705,0.0354,0.0462,
F41P,0.0479,,0.0553,0.0469,0.0485,0.0483,0.038,,0.0532,0.0491,,0.0632,0.0541,0.0581,,0.0193,,0.0463,0.0524,0.0423
F41G,0.0734,0.0826,,0.0338,,,0.0734,,0.0422,0.0747,0.0486,,0.0322,0.0771,0.0558,0.0716,0.0594,,0.0432,0.0521
